# Data from the supplement of paper PMC8728848.
# The list shows a part of the results.
# B1: rMpL (Macrolepiota procera) (protein)
# chain: MSTQVSSGRTYKITNVIAGTVIDLSGEDNKSIIGYPYHSGKNQQWTFNWTGKAWTLRSASSGSYLGIEGTPAGGTRLVAVNDPFEWHIWRDEANENAFRIFVPFTNYNLDLSGYGDTTPGTPVQLWWTWEGLHQTWTIDRP
# Experiments:
# Experiment in all cases: glycan array binding signal (z-score within array); higher = stronger binding
# Conditions in all cases: glycan notation: IUPAC condensed, linker removed
# [1] = molecular target: GlcNAc(b1-4)[GlcNAc(b1-6)]GalNAc
# In short: (§1)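 Glycan array data were curated from 3228 arrays in the Consortium for Functional Glycomics database and kept only where the protein sequence was available. Glycan names were converted to IUPAC-condensed notation, and columns mapping to the same glycan were averaged. The binding signal is a within-array Z-score, averaged across arrays of the same protein sequence at different concentrations or buffers and across linkers. Negative Z-scores can be read as non-binding.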
# [2] = molecular target: GlcNAc(b1-6)Gal(b1-4)GlcNAc
# In short: as §1
# GlcNAc(b1-6)GalNAc = molecular target: GlcNAc(b1-6)GalNAc
# In short: as §1
# [3] = molecular target: GlcNAc6S(b1-3)Gal(b1-4)GlcNAc
# In short: as §1
# Kdn(a2-3)Gal(b1-3)GalNAc = molecular target: Kdn(a2-3)Gal(b1-3)GalNAc
# In short: as §1
# Kdn(a2-3)Gal(b1-3)GlcNAc = molecular target: Kdn(a2-3)Gal(b1-3)GlcNAc
# In short: as §1
# Kdn(a2-3)Gal(b1-4)Glc = molecular target: Kdn(a2-3)Gal(b1-4)Glc
# In short: as §1
# Kdn(a2-3)Gal(b1-4)GlcNAc = molecular target: Kdn(a2-3)Gal(b1-4)GlcNAc
# In short: as §1
# [4] = molecular target: Kdn(a2-3)Gal(b1-4)[Fuc(a1-3)]GlcNAc
# In short: as §1
# Kdn(a2-6)Gal(b1-4)GlcNAc = molecular target: Kdn(a2-6)Gal(b1-4)GlcNAc
# In short: as §1
# [5] = molecular target: Man(a1-2)Man(a1-2)Man(a1-3)Man
# In short: as §1
# [6] = molecular target: Man(a1-2)Man(a1-2)Man(a1-6)[Man(a1-3)]Man
# In short: as §1
# Man(a1-2)Man(a1-3)Man = molecular target: Man(a1-2)Man(a1-3)Man
# In short: as §1
# [7] = molecular target: Man(a1-2)Man(a1-3)[Man(a1-2)Man(a1-6)]Man
# In short: as §1
# [8] = molecular target: Man(a1-2)Man(a1-3)[Man(a1-2)Man(a1-6)]Man(a1-6)[Man(a1-2)Man(a1-2)Man(a1-3)]Man
# In short: as §1
# [9] = molecular target: Man(a1-2)Man(a1-3)[Man(a1-2)Man(a1-6)]Man(a1-6)[Man(a1-2)Man(a1-2)Man(a1-3)]Man(b1-4)GlcNAc(b1-4)GlcNAc
# In short: as §1
# [10] = molecular target: Man(a1-2)Man(a1-3)[Man(a1-6)]Man(a1-6)[Man(a1-2)Man(a1-3)]Man(b1-4)GlcNAc(b1-4)GlcNAc
# In short: as §1
# [11] = molecular target: Man(a1-2)Man(a1-6)[Man(a1-3)]Man(a1-6)[Man(a1-2)Man(a1-2)Man(a1-3)]Man
# In short: as §1
# [12] = molecular target: Man(a1-2)Man(a1-6)[Man(a1-3)]Man(a1-6)[Man(a1-2)Man(a1-2)Man(a1-3)]Man(b1-4)GlcNAc(b1-4)GlcNAc
# In short: as §1
# Man(a1-3)[Man(a1-6)]Man = molecular target: Man(a1-3)[Man(a1-6)]Man
# In short: as §1
# [13] = molecular target: Man(a1-3)[Man(a1-6)]Man(a1-6)[Man(a1-2)Man(a1-3)]Man(b1-4)GlcNAc(b1-4)GlcNAc
# In short: as §1
# [14] = molecular target: Man(a1-3)[Man(a1-6)]Man(a1-6)[Man(a1-3)]Man
# In short: as §1
# [15] = molecular target: Man(a1-3)[Man(a1-6)]Man(a1-6)[Man(a1-3)]Man(b1-4)GlcNAc(b1-4)GlcNAc
# In short: as §1
binder,measurement,setting,value
B1,glycan array binding signal (z-score),[1],-0.342
same,glycan array binding signal (z-score),[2],-0.173
same,glycan array binding signal (z-score),GlcNAc(b1-6)GalNAc,-0.31
same,glycan array binding signal (z-score),[3],0.303
same,glycan array binding signal (z-score),Kdn(a2-3)Gal(b1-3)GalNAc,-0.193
same,glycan array binding signal (z-score),Kdn(a2-3)Gal(b1-3)GlcNAc,-0.339
same,glycan array binding signal (z-score),Kdn(a2-3)Gal(b1-4)Glc,-0.476
same,glycan array binding signal (z-score),Kdn(a2-3)Gal(b1-4)GlcNAc,-0.3
same,glycan array binding signal (z-score),[4],-0.266
same,glycan array binding signal (z-score),Kdn(a2-6)Gal(b1-4)GlcNAc,-0.252
same,glycan array binding signal (z-score),[5],-0.323
same,glycan array binding signal (z-score),[6],-0.248
same,glycan array binding signal (z-score),Man(a1-2)Man(a1-3)Man,-0.328
same,glycan array binding signal (z-score),[7],-0.407
same,glycan array binding signal (z-score),[8],-0.327
same,glycan array binding signal (z-score),[9],-0.094
same,glycan array binding signal (z-score),[10],-0.35
same,glycan array binding signal (z-score),[11],-0.422
same,glycan array binding signal (z-score),[12],-0.037
same,glycan array binding signal (z-score),Man(a1-3)[Man(a1-6)]Man,-0.296
same,glycan array binding signal (z-score),[13],0.343
same,glycan array binding signal (z-score),[14],-0.268
same,glycan array binding signal (z-score),[15],-0.329
